The other results are listed elsewhere or left out.
How the values were obtained:
Assay in all cases: glycan array binding signal (z-score within array); higher = stronger binding
Conditions in all cases: glycan notation: IUPAC condensed, linker removed
[1] = molecular target: Gal(a1-3)[Gal(a1-4)]Gal(b1-4)GlcNAc
Procedure, shortened: (§1)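 From the Consortium for Functional Glycomics database, 3228 arrays were curated, keeping only those whose protein sequence was available. Binding is given as a within-array Z-score averaged across arrays sharing a protein sequence and across linkers. Negative Z-scores can be read as non-binding.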

[2] = molecular target: Gal(a1-4)Gal(b1-3)GlcNAc(b1-2)Man(a1-3)[Gal(a1-4)Gal(b1-3)GlcNAc(b1-2)Man(a1-6)]Man(b1-4)GlcNAc(b1-4)GlcNAc
Procedure, shortened: as §1

Gal(a1-4)Gal(b1-4)Glc = molecular target: Gal(a1-4)Gal(b1-4)Glc
Procedure, shortened: as §1

Gal(a1-4)Gal(b1-4)GlcNAc = molecular target: Gal(a1-4)Gal(b1-4)GlcNAc
Procedure, shortened: as §1

[3] = molecular target: Gal(a1-4)Gal(b1-4)GlcNAc(b1-2)Man(a1-3)[Gal(a1-4)Gal(b1-4)GlcNAc(b1-2)Man(a1-6)]Man(b1-4)GlcNAc(b1-4)GlcNAc
Procedure, shortened: as §1

[4] = molecular target: Gal(a1-4)Gal(b1-4)GlcNAc(b1-3)Gal(b1-4)Glc
Procedure, shortened: as §1

Gal(a1-4)GlcNAc = molecular target: Gal(a1-4)GlcNAc
Procedure, shortened: as §1

Gal(a1-6)Glc = molecular target: Gal(a1-6)Glc
Procedure, shortened: as §1

Gal(b1-2)Gal = molecular target: Gal(b1-2)Gal
Procedure, shortened: as §1

Gal(b1-3)Gal = molecular target: Gal(b1-3)Gal
Procedure, shortened: as §1

Gal(b1-3)Gal(b1-4)GlcNAc = molecular target: Gal(b1-3)Gal(b1-4)GlcNAc
Procedure, shortened: as §1

Gal(b1-3)GalNAc = molecular target: Gal(b1-3)GalNAc
Procedure, shortened: as §1

[5] = molecular target: Gal(b1-3)GalNAc(a1-3)[Fuc(a1-2)]Gal(b1-4)Glc
Procedure, shortened: as §1

[6] = molecular target: Gal(b1-3)GalNAc(a1-3)[Fuc(a1-2)]Gal(b1-4)GlcNAc
Procedure, shortened: as §1

Gal(b1-3)GalNAc(b1-3)Gal = molecular target: Gal(b1-3)GalNAc(b1-3)Gal
Procedure, shortened: as §1

[7] = molecular target: Gal(b1-3)GalNAc(b1-3)Gal(a1-4)Gal(b1-4)Glc
Procedure, shortened: as §1

[8] = molecular target: Gal(b1-3)GalNAc(b1-4)Gal(b1-4)Glc
Procedure, shortened: as §1

[9] = molecular target: Gal(b1-3)GalNAc(b1-4)[Neu5Ac(a2-3)]Gal(b1-4)Glc
Procedure, shortened: as §1

Gal(b1-3)GlcNAc = molecular target: Gal(b1-3)GlcNAc
Procedure, shortened: as §1

[10] = molecular target: Gal(b1-3)GlcNAc(a1-3)Gal(b1-4)GlcNAc
Procedure, shortened: as §1

[11] = molecular target: Gal(b1-3)GlcNAc(a1-6)Gal(b1-4)GlcNAc
Procedure, shortened: as §1

Gal(b1-3)GlcNAc(b1-2)Man = molecular target: Gal(b1-3)GlcNAc(b1-2)Man
Procedure, shortened: as §1

[12] = molecular target: Gal(b1-3)GlcNAc(b1-2)Man(a1-3)[Gal(b1-3)GlcNAc(b1-2)Man(a1-6)]Man(b1-4)GlcNAc(b1-4)GlcNAc
Procedure, shortened: as §1

[13] = molecular target: Gal(b1-3)GlcNAc(b1-2)Man(a1-3)[Gal(b1-3)GlcNAc(b1-2)Man(a1-6)]Man(b1-4)GlcNAc(b1-4)[Fuc(a1-6)]GlcNAc
Procedure, shortened: as §1

[14] = molecular target: Gal(b1-3)GlcNAc(b1-2)Man(a1-3)[GlcNAc(b1-4)][Gal(b1-3)GlcNAc(b1-2)Man(a1-6)]Man(b1-4)GlcNAc(b1-4)GlcNAc
Procedure, shortened: as §1

[15] = molecular target: Gal(b1-3)GlcNAc(b1-2)[Gal(b1-3)GlcNAc(b1-6)]Man(a1-6)[Gal(b1-3)GlcNAc(b1-2)Man(a1-3)]Man(b1-4)GlcNAc(b1-4)GlcNAc
Procedure, shortened: as §1

[16] = molecular target: Gal(b1-3)GlcNAc(b1-3)Gal(b1-3)GlcNAc
Procedure, shortened: as §1

[17] = molecular target: Gal(b1-3)GlcNAc(b1-3)Gal(b1-4)Glc
Procedure, shortened: as §1

[18] = molecular target: Gal(b1-3)GlcNAc(b1-3)Gal(b1-4)GlcNAc
Procedure, shortened: as §1

[19] = molecular target: Gal(b1-3)GlcNAc(b1-3)Gal(b1-4)GlcNAc(b1-2)Man(a1-3)[Gal(b1-3)GlcNAc(b1-3)Gal(b1-4)GlcNAc(b1-2)Man(a1-6)]Man(b1-4)GlcNAc(b1-4)GlcNAc
Procedure, shortened: as §1

[20] = molecular target: Gal(b1-3)GlcNAc(b1-3)Gal(b1-4)GlcNAc(b1-2)[Gal(b1-3)GlcNAc(b1-3)Gal(b1-4)GlcNAc(b1-6)]Man(a1-6)[Gal(b1-3)GlcNAc(b1-3)Gal(b1-4)GlcNAc(b1-2)Man(a1-3)]Man(b1-4)GlcNAc(b1-4)[Fuc(a1-6)]GlcNAc
Procedure, shortened: as §1

[21] = molecular target: Gal(b1-3)GlcNAc(b1-3)Gal(b1-4)GlcNAc(b1-3)Gal(b1-4)GlcNAc(b1-2)[Gal(b1-3)GlcNAc(b1-3)Gal(b1-4)GlcNAc(b1-3)Gal(b1-4)GlcNAc(b1-6)]Man(a1-6)[Gal(b1-3)GlcNAc(b1-3)Gal(b1-4)GlcNAc(b1-3)Gal(b1-4)GlcNAc(b1-2)Man(a1-3)]Man(b1-4)GlcNAc(b1-4)[Fuc(a1-6)]GlcNAc
Procedure, shortened: as §1

[22] = molecular target: Gal(b1-3)GlcNAc(b1-3)Gal(b1-4)GlcNAc(b1-6)[Gal(b1-3)GlcNAc(b1-3)]Gal(b1-4)Glc
Procedure, shortened: as §1

[23] = molecular target: Gal(b1-3)GlcNAc(b1-3)Gal(b1-4)[Fuc(a1-3)]GlcNAc
Procedure, shortened: as §1

[24] = molecular target: Gal(b1-3)GlcNAc(b1-3)Gal(b1-4)[Fuc(a1-3)]GlcNAc(b1-6)[Gal(b1-3)GlcNAc(b1-3)]Gal(b1-4)Glc
Procedure, shortened: as §1

[25] = molecular target: Gal(b1-3)GlcNAc(b1-3)GalNAc
Procedure, shortened: as §1

[26] = molecular target: Gal(b1-3)GlcNAc(b1-6)Gal(b1-4)GlcNAc
Procedure, shortened: as §1

[27] = molecular target: Gal(b1-3)GlcNAc(b1-6)GalNAc
Procedure, shortened: as §1

B1: SP8524D-bot-399-27-399 (Bacteroides ovatus) (protein)
chain: DAKYDTLDTHAYIEEALSSTSQKVTVQATGESFTTLNVHLSNLSSTDNHYKLVTDQSVLDTYNHINGTGYIMLPKDYYTLPETITVKAGQYAADALSIALKAFSQEMMKSGESYALPVKLVLQDGSISPMENTGTFVILAESIIEFSAPMFVGAPSLKANKFTESPETYSQYTIEVRFQVANTADRDRAVFKNGGDDANFILLRFEDPQSDNENYKAHSLVQIVGRNRLYLNPSNSFKPNEWQHLALVCDGSNYRLYINGVDSGVLSIPTGATTFSDVNWFCLGDDSYSRWGNCKILMSEARIWSVVRSASQIQNNMTQVSPKSVGLEAYWRFNEGQGNVFEDATGKGHTLTTSATPTWIDGILSTDKSTEWK
For B1, the “glycan array binding signal (z-score)” value [1] was 3.56, the “glycan array binding signal (z-score)” value [2] was -0.261 and the “glycan array binding signal (z-score)” value (Gal(a1-4)Gal(b1-4)Glc) was 0.281. For the same binder, the “glycan array binding signal (z-score)” value (Gal(a1-4)Gal(b1-4)GlcNAc) was 0.249, the “glycan array binding signal (z-score)” value [3] was -0.336 and the “glycan array binding signal (z-score)” value [4] was -0.231. For the same binder, the “glycan array binding signal (z-score)” value (Gal(a1-4)GlcNAc) was -0.177, the “glycan array binding signal (z-score)” value (Gal(a1-6)Glc) was -0.444 and the “glycan array binding signal (z-score)” value (Gal(b1-2)Gal) was -0.194. For the same binder, the “glycan array binding signal (z-score)” value (Gal(b1-3)Gal) was -0.011, the “glycan array binding signal (z-score)” value (Gal(b1-3)Gal(b1-4)GlcNAc) was -0.023 and the “glycan array binding signal (z-score)” value (Gal(b1-3)GalNAc) was -0.31. For the same binder, the “glycan array binding signal (z-score)” value [5] was 0.263, the “glycan array binding signal (z-score)” value [6] was -0.073 and the “glycan array binding signal (z-score)” value (Gal(b1-3)GalNAc(b1-3)Gal) was 0.146. The “glycan array binding signal (z-score)” value [7] was -0.491, the “glycan array binding signal (z-score)” value [8] was 0.485 and the “glycan array binding signal (z-score)” value [9] was -0.183. For the same binder, the “glycan array binding signal (z-score)” value (Gal(b1-3)GlcNAc) was 0.089, the “glycan array binding signal (z-score)” value [10] was 0.336 and the “glycan array binding signal (z-score)” value [11] was -0.089. The “glycan array binding signal (z-score)” value (Gal(b1-3)GlcNAc(b1-2)Man) was 0.099, the “glycan array binding signal (z-score)” value [12] was -0.031 and the “glycan array binding signal (z-score)” value [13] was -0.351. For the same binder, the “glycan array binding signal (z-score)” value [14] was 0.168, the “glycan array binding signal (z-score)” value [15] was 0.024 and the “glycan array binding signal (z-score)” value [16] was -0.386. The “glycan array binding signal (z-score)” value [17] was -0.359, the “glycan array binding signal (z-score)” value [18] was -0.826 and the “glycan array binding signal (z-score)” value [19] was -0.128. The “glycan array binding signal (z-score)” value [20] was 0.43, the “glycan array binding signal (z-score)” value [21] was 0.663 and the “glycan array binding signal (z-score)” value [22] was -0.275. The “glycan array binding signal (z-score)” value [23] was -0.174, the “glycan array binding signal (z-score)” value [24] was -0.379 and the “glycan array binding signal (z-score)” value [25] was -0.467. For the same binder, the “glycan array binding signal (z-score)” value [26] was 0.021 and the “glycan array binding signal (z-score)” value [27] was 0.738.
